We go through 32 compounds from ChEMBL document CHEMBL1201862, “PubChem BioAssay data set” (2004).

SMILES strings stand for the structures.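 Interpolation was linear, between the two tested concentrations surrounding the appropriate level; five concentrations were tested over 48 hours in 96-well plates. GI50 is the concentration that inhibits growth by half.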 Active and inactive are the calls of the source. Rule as the data show it: active = GI50 up to about 1.1 µM and inactive = higher.

The experiment has as its system NCI-H322M. Briefly: growth of human tumour cells (NCI), 48 h.
With `NCC1CCN(c2nc3ccccc3c3c2CCCC3)CC1`, the GI50 was inactive: 6.62 µM. The figure for `COc1ccc(OC)c(/C=C/c2ccnc3ccccc23)c1` is active: 0.553 µM; for `O=C(O)C12C3CCC(O3)C1(C(=O)O)C1CCC2O1` (configuration not stated) it is inactive: > 100 µM.

`C=CC[C@@H]1C=C[C@@H](C(=O)OC)n2c(=O)n(-c3ccccc3)c(=O)n21`: the GI50 is inactive: > 100 µM. Under `CCCCC/N=C/c1c(O)c(O)c(C(C)C)c2cc(C)c(-c3c(C)cc4c(C(C)C)c(O)c(O)c(/C=N/CCCCC)c4c3O)c(O)c12` stands inactive: 82.6 µM. Under `Cc1ccc(C)c(N2C(=O)C(=O)C(c3nc4ccccc4o3)/C(=N/N)C2=O)c1` (configuration not stated) stands inactive: > 100 µM. The figure for `CN(C(=O)C1=CCC2(CC1)OCCO2)c1ccccc1OS(=O)(=O)C(F)(F)F` is inactive: > 100 µM; for `COc1cc2c(c(O)c1OC)C(=O)[C@@H]1CCC(=O)N1C2c1ccccc1` (some centres not stated) it is inactive: > 100 µM; for `CC1(CC(=O)OC(C#C[Si](C)(C)C)Cc2ccccc2)OCCO1` (configuration not stated) it is inactive: > 100 µM.

For the compound `O=[N+]([O-])c1ccc(NN/N=N/c2ccc(-c3nc4ccccc4[nH]3)cc2)c([N+](=O)[O-])c1`, the GI50 is inactive: 62.2 µM.

On to `CC(=O)OC1=c2ccccc2=C(O)C2C1C=NN2C(C)=O` (configuration not stated), for which the GI50 is inactive: > 100 µM.

With `COc1ccc(/C=C2/CCS(=O)(=O)c3ccc(C)cc3C2=O)cc1OC`, the GI50 is inactive: 14.4 µM. The figure for `COc1cc(/C=C2\NC(=O)N(/C=C3\C(=O)Oc4ccccc4C3=O)C2=O)ccc1O` is inactive: > 100 µM. Regarding `N#Cc1ccccc1NC(=O)/C(=N\Nc1ccc([N+](=O)[O-])cc1)C1C(=O)NC(=O)NC1=O`, the GI50 was inactive: > 100 µM. The figure for `O=C1c2ccccc2C(=O)C1(Cl)C1(S(=O)(=O)O)c2ccccc2-c2ccccc21` is inactive: > 100 µM; for `CC1=NNC(=O)C1C1C=C(c2c[nH]c3ccccc23)OC1=O` (configuration not stated) it is inactive: > 100 µM; for `O=C1Nc2ccccc2SC1=C(C(=O)c1ccccc1)C(=O)c1ccccc1` it is inactive: 30.9 µM. With `COc1cccc(N2C(=O)[C@H]3[C@H]4CC(C(C)(C)C)CC[C@H]4c4c([nH]c5ccccc45)[C@H]3C2=O)c1` (some centres not stated), the GI50 was inactive: 19.6 µM. Regarding `CCOC(=O)c1ccc(/C(C)=N/NC(N)=S)cc1`, the GI50 was inactive: > 100 µM.

Consider `CNC(=O)C(C)NC(=O)C(Cc1ccccc1)NC(=O)c1ccccc1` (configuration not stated), for which the GI50 is inactive: > 100 µM. Under `O=C1OC(c2ccccc2)=N/C1=C/NC(CO)C(=O)O` (configuration not stated) stands inactive: > 100 µM; under `CCCCCCCCCCCCNC(C)=O`, inactive: 20.3 µM. Under `COc1c(C(=O)c2ccc([N+](=O)[O-])cc2)cc(C(C)(C)C)cc1C(C)(C)C` stands inactive: 70.1 µM; under `O=C(N/N=C(COc1ccc(Cl)cc1)\N=C\c1ccncc1)c1ccncc1`, inactive: > 100 µM; under `Cc1cc(Cl)ccc1Nc1nc2c(s1)C(=O)c1ccccc1C2=O`, inactive: 4.42 µM. With `CCCC(=O)OC[n+]1cccc(-c2c(COC(=O)NC(C)C)c(COC(=O)NC(C)C)c3n2CCC3)c1`, the GI50 was inactive: > 100 µM. The figure for `O=C(O)C(C1NCCS1)N1C(=O)c2ccccc2C1=O` (configuration not stated) is inactive: > 100 µM; for `C[N+]1(C)C/C(=C\c2ccc(O)cc2)C(=O)/C(=C/c2ccc(O)cc2)C1` it is inactive: 82.6 µM; for `N#CC(=C1C=CC(=NO)C=C1)c1ccc(Cl)cc1` it is inactive: 24.5 µM. The figure for `Cc1c(C#N)c(=N)oc2ccccc12` is inactive: > 100 µM; for `COc1cc2c(cc1OC)C1(c3ccc(Cl)cc3)ON=C(c3ccccc3)N1CS2` (configuration not stated) it is inactive: > 100 µM; for `C/C(CC(=O)Nc1cc(C)ccc1C)=N\NC(=O)c1ccncc1` it is inactive: > 100 µM.
